Measurements from patent US20220204602A1 (published 2022).

What was measured:
human complement C5 [1] = target: T1, human complement C5 (human, UniProt P01031 19-673; P01031 in part); experiment: BLI (Gator); pH 5.8
human complement C5 [2] = target: T1, human complement C5; experiment: BLI (Gator); pH 7.4
Cyno FcRn = target: T2, Cyno FcRn (Cynomolgus, UniProt Q8SPV9 24-297; Q8SPW0 21-119); experiment: SPR (Biacore); pH 6.0
T2 chain 1: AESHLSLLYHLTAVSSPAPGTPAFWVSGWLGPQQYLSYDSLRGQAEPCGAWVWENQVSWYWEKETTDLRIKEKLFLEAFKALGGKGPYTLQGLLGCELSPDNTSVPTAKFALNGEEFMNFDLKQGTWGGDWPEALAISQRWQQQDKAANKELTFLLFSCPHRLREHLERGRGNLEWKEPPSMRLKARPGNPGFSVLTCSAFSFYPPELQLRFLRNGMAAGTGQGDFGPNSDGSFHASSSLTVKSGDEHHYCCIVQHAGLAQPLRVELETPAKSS
T2 chain 2: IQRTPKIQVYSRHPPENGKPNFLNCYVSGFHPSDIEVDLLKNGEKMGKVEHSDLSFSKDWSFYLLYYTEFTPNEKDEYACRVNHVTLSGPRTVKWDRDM

Kd (human complement C5 [1]): 15 nM
Kd (human complement C5 [2]): 1.51 nM
Ka (Cyno FcRn): 2.56e+07 M⁻¹
B1: anti-C5 mAb/FH SCR1-5 fusion protein FMEH-IgG4PLA-FH1-5 (other)
heavy: QVQLVQSGAEVKKPGASVKVSCKASGYTITDYHFDWVRQAPGQGLEWMGDISMNYGYHIYNQKFKDRVTMTTDTSTSTAYMELRSLRSDDTAVYYCARRDIRYSGNSYKWYFDEWGQGTMVTVSSASTKGPSVFPLAPCSRSTSESTAALGCLVKDYFPEPVTVSWNSGALTSGVHTFPAVLQSSGLYSLSSVVTVPSSSLGTKTYTCNVDHKPSNTKVDKRVESKYGPP[letters of human IgG4 Fc with S228P M428L N434A (EU numbers) not shown]EDCNELPPRRNTEILTGSWSDQTYPEGTQAIYKCRPGYRSLGNVIMVCRKGEWVALNPLRKCQKRPCGHPGDTPFGTFTLTGGNVFEYGVKAVYTCNEGYQLLGEINYRECDTDGWTNDIPICEVVKCLPVTAPENGKIVSSAMEPDREYHFGQAVRFVCNSGYKIEGDEEMHCSDDGFWSKEKPKCVEISCKSPDVINGSPISQKIIYKENERFQYKCNMGYEYSERGDAVCTESGWRPLPSCEEKSCDNPYIPNGDYSPLRIKHRTGDEITYQCRNGFYPATRGNTAKCTSTGWIPAPRCTL
light: DIQLTQSPSFLSASVGDRVTITCRTSKSISKHLAWYQQKPGKAPKLLIYSGSTLQSGVPSRFSGSGSGTEFTLTISSLQPEDFATYYCQQHNEYPYTFGQGTKLEIK
